{"source": "PubChem BioAssay AID624418", "about": "(National Center for Advancing Translational Sciences (NCATS), 2012)", "note": "The campaign covered roughly 410,000 compounds. About 530 (0.13%) were called active. This list was built around the results that the source calls inconclusive (neither active nor inactive); the mix of calls is not that of the screen. Calls follow the shape of the dose curve; as a rule, active = well fitted inhibition curve with a large enough effect; inconclusive = small, poorly fitted or top-dose-only effect, or another doubt; inactive = no such curve, though single readings can be large or run the other way. Potencies of inconclusive entries are doubtful fits and often do not repeat. % is scaled to controls: 0 for no effect and ±100 for the full control effect; potency is read from the fitted curve at half-maximal effect.", "data": [{"assay": "qHTS of GLP-1 Receptor Inverse Agonists: Cytotox Screen", "conditions": "HEK293 cAMP-luciferase reporter cells, luminescence, 24 h; activity change, negative = inhibition: at 38.3 µM (top of the series) unless noted", "method_in_brief": "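Seeding density was 200 cells/uL; after overnight-length (12 h) culture, 23 nL compounds went on for 24 h at 37 °C. Readout used a luciferase detection reagent, luminescence taken after 12 min at room temperature.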", "values": [{"smiles": "CCCNC(=O)C(CC)NC(=O)c1cccc([N+](=O)[O-])c1", "note": "(stereo not given)", "Potency": "inconclusive: 3.55 µM [inhibitor, full curve, poor fit]"}, {"smiles": "CCCSc1nnc(Sc2nnnn2-c2ccccc2)s1", "Potency": "inconclusive: 10 µM [inhibitor, partial curve, poor fit]"}, {"smiles": "Cc1nc(N)[nH]c(=O)c1CCCNc1ccc([N+](=O)[O-])cc1", "Potency": "inconclusive: 11.2 µM [inhibitor, partial curve, poor fit]"}, {"smiles": "C#CCOCCOCCOCCNc1nc(N2CCN(C(=O)CCCCCCCCCCNC(=O)Cn3cc(CCCCCN)nn3)CC2)nc(N2CCN(C(=O)CCCCCCCCCCNC(=O)[C@H]([C@@H](C)CC)n3cc(CCCCN=C(N)N)nn3)CC2)n1", "Potency": "inconclusive: 28.2 µM [inhibitor, single point]"}, {"smiles": "O=C(N/N=C\\c1ccc(CNS(=O)(=O)c2ccc(Cl)cc2)o1)C(=O)Nc1ccc(Oc2ccccc2)cc1", "activity change, negative = inhibition": "inactive: 1.1%"}, {"smiles": "Cc1ccc(NC(=S)NC(=O)C2CCCCC2)c(Br)c1", "Potency": "inconclusive: 11.2 µM [inhibitor, partial curve, poor fit]"}, {"smiles": "Cc1ccccc1OCc1nc(-c2ccc(NC(=O)c3ccco3)cc2)no1", "Potency": "inconclusive: 14.1 µM [inhibitor, single point]"}, {"smiles": "COc1cccc(NC(=O)C2CC(=O)n3cnnc3S2)c1", "note": "(stereo not given)", "activity change, negative = inhibition": "inactive: 2.16%"}, {"smiles": "CCCN1CCN(C(c2cc3cc(OCC)ccc3[nH]c2=O)c2nnnn2C2CCCCC2)CC1", "note": "(stereo not given)", "activity change, negative = inhibition": "inactive: -8.47%"}, {"smiles": "CCOc1ccc(-n2c(SCC(=O)NCc3ccco3)nc3c([nH]c4ccccc43)c2=O)cc1", "Potency": "inconclusive: 28.2 µM [inhibitor, single point]"}, {"smiles": "CCN1CCN(c2ccc(S(=O)(=O)N3CCCCC3)cc2NC(=O)C(C)Oc2ccc(F)cc2)CC1", "note": "(stereo not given)", "Potency": "inconclusive: 31.6 µM [inhibitor, single point]"}, {"smiles": "O=P(C(=S)Nc1ccccc1Cl)(c1ccccc1)c1ccccc1", "Potency": "inconclusive: 3.16 µM [inhibitor, full curve]"}, {"smiles": "O=C(Cc1ccc(Cl)cc1)c1c[nH]c(C(=O)NCc2cccnc2)c1", "Potency": "inconclusive: 3.55 µM [inhibitor, full curve, poor fit]"}, {"smiles": "CCC(=O)Nc1ccc(NC(=O)CSc2nnnn2-c2cccnc2)cc1C", "Potency": "inconclusive: 31.6 µM [inhibitor, single point]"}, {"smiles": "CCOC(=O)CSc1c(-c2ccc(Cl)cc2)[nH]c2ccccc12", "Potency": "inconclusive: 28.2 µM [inhibitor, single point]"}, {"smiles": "CCC(C(=O)OCC(=O)Nc1ccc(C(=O)Nc2ccc(OC)cc2)cc1)c1ccccc1", "note": "(stereo not given)", "Potency": "inconclusive: 8.91 µM [inhibitor, partial curve]"}, {"smiles": "COc1ccc(C(=O)C=CNNC(=O)c2ccc(Cl)cc2)cc1", "Potency": "inconclusive: 2.82 µM [inhibitor, full curve, poor fit]"}, {"smiles": "CCc1ccc(CNc2ccc(O)cc2)cc1", "Potency": "inconclusive: 8.91 µM [inhibitor, partial curve, poor fit]"}, {"smiles": "COC(=O)/C=C1\\S/C(=N\\N=C\\CC(=O)OC)NC1=O", "Potency": "inconclusive: 2.24 µM [inhibitor, full curve, poor fit]"}, {"smiles": "C/C(=N\\NC(=O)c1cccc(N/N=C(\\C)c2cc(O)ccc2O)c1)c1cc(O)ccc1O", "Potency": "inconclusive: 28.2 µM [inhibitor, single point]"}, {"smiles": "O=C(NCCN1CCN(C(=O)c2c(F)cccc2F)CC1)C(=O)Nc1ccc(Cl)cc1", "activity change, negative = inhibition": "inactive: -2.26%"}, {"smiles": "CCN(CC)C(=S)NC(=O)c1cc(OC)c(OC)c(OC)c1", "Potency": "inconclusive: 5.01 µM [inhibitor, full curve, poor fit]"}, {"smiles": "COc1ccccc1N(C(=O)c1snc(C(N)=O)c1N)C(C(=O)NCc1ccccc1)c1ccc(C)o1", "note": "(stereo not given)", "Potency": "inconclusive: 2 µM [inhibitor, full curve, poor fit]"}, {"smiles": "COc1ccc(NC(=O)c2cc3ccccn3n2)cc1", "Potency": "inconclusive: 28.2 µM [inhibitor, partial curve, poor fit]"}, {"smiles": "COC(=O)N1CCc2c(sc(NC(=O)C3COc4ccccc4O3)c2C(N)=O)C1", "note": "(stereo not given)", "activity change, negative = inhibition": "inactive: -11%"}, {"smiles": "Cc1ccc(C(=O)NNC(=O)COC(=O)COc2ccccc2C#N)cc1", "Potency": "inconclusive: 11.2 µM [inhibitor, single point]"}, {"smiles": "O=C(CCCN1C(=O)/C(=C/c2ccccc2Cl)SC1=S)NCCCN1CCOCC1", "Potency": "inconclusive: 11.2 µM [inhibitor, partial curve, poor fit]"}, {"smiles": "O=C(OCCc1cc2ccccc2c(=O)o1)c1ccc(C(F)(F)F)cc1", "Potency": "inconclusive: 3.55 µM [inhibitor, full curve, poor fit]"}, {"smiles": "OC(COC(c1ccc(Cl)cc1)c1ccc(Cl)cc1)CN1CCCC1", "note": "(stereo not given)", "activity change, negative = inhibition": "inactive: 1.92%"}, {"smiles": "Cc1cccc(C)c1NC(=S)Nc1ccc(Cl)c(Cl)c1", "Potency": "inconclusive: 11.2 µM [inhibitor, single point]"}, {"smiles": "Cc1ccc(C)c(N2CCN(S(=O)(=O)c3cccc4cccnc34)CC2)c1", "activity change, negative = inhibition": "inactive: 4.03%"}, {"smiles": "CCOC(=O)CCCCC(=O)c1[nH]c(=O)[nH]c1CSc1nc2ccccc2[nH]1", "activity change, negative = inhibition": "inactive: -8.81%"}, {"smiles": "CCOC(=O)c1ccc(-c2cccc(-c3cc(=O)oc4cc(OC)cc(OC)c34)c2)cc1", "activity change, negative = inhibition": "inactive: 2.31%"}, {"smiles": "O=[N+]([O-])c1cccc(C=NNc2ccc3ccccc3n2)c1O", "Potency": "inconclusive: 5.62 µM [inhibitor, full curve, poor fit]"}, {"smiles": "O=C(O)c1ccc2c(c1)OCCOCCOCCOCCOCCO2", "Potency": "inconclusive: 2.82 µM [inhibitor, full curve]"}, {"smiles": "Cc1ccc2nc(N3C(=O)CNC3=S)sc2c1", "Potency": "inconclusive: 6.31 µM [inhibitor, partial curve, poor fit]"}, {"smiles": "COc1ccc(CN(CCC#N)CCC2(c3ccccc3)CC(C)N(C)CC2C)cc1OC", "note": "(stereo not given)", "Potency": "inconclusive: 31.6 µM [inhibitor, single point]"}, {"smiles": "FC(F)(F)c1cccc(NC(=S)NCC2COc3ccccc3O2)c1", "note": "(stereo not given)", "Potency": "inconclusive: 11.2 µM [inhibitor, single point]"}, {"smiles": "CN1CCN(NC(=O)Nc2ccc(F)cc2)CC1", "activity change, negative = inhibition": "inactive: -5.04%"}, {"smiles": "CC(=O)Nc1ccc(NC(=O)C/C(C)=N/NC(N)=S)cc1", "Potency": "inconclusive: 11.2 µM [inhibitor, partial curve, poor fit]"}]}]}
